{"source": "paper PMC12136788", "binders": {"B1": {"name": "chr14:66974463:66974464:+_ENSMUSG00000022044_ENSMUST00000074523|mus_hu|mus_mus_mus_hu_False|18_58 (ssRNA)", "RNA": "GGGAGUUCUACAGUCCGACGAUCUUGUAGGACGACUUAUUCAGGGGAUCGGCCAGGAAGCAGGAGCAGAACAAGGACACUAGUGGGAGCUCCUUCAUCUUCUCUUUGUAGGCAGCAAGAGUCAUGUUUCUGGGAUCUGGUGGCCAACAGAGGAUUGAGCAUCA"}, "B2": {"name": "chrX:101971874:101971875:+_ENSG00000158301_ENST00000332262|hu_mus|motif|central (ssRNA)", "RNA": "GGGAGUUCUACAGUCCGACGAUCUAUAGUGAGAUGUCUAAGCAUCCUCAUUCCAGUUAGCUGUUCAGGGGAAUUCACGCGGUGUGAAAGUGUCUCCUCACACACUUGACAAAUAAAUGUCUCAAUCAUGUUUAGAUUUGGAUACAACAGAGGAUUGAGCAUCA"}, "B3": {"name": "chr7:54825262:54825263:-_ENSG00000132432_ENST00000352861|hu_hu|hu_hu_hu_mus_False|1_8 (ssRNA)", "RNA": "GGGAGUUCUACAGUCCGACGAUCCUGCCGGCUGGGCUCCACAAACUGCAUUACCUGAUCCAUGUUUGUUGGAUGGCGGAUUGAGAGCGUAGAGACACGUAGCUCAGGAGAGAACCGAGCCCAACGGCACCGGAACCGGAAUCCCAACAGAGGAUUGAGCAUCA"}, "B4": {"name": "chr8:109707966:109707967:+_ENSMUSG00000031924_ENSMUST00000034400|mus_mus|FALSE|FALSE (ssRNA)", "RNA": "GGGAGUUCUACAGUCCGACGAUCAAUUUACUUAAAAAGAAAAAUGGGAAAAGAUUCAUAACCUGACUGCUGUUCCCUUAACUAUAUCUACUAUGAAUUCAAAUUAUGAGAAAUCAUGUACUGUCCCCAAAGGCCAUGUCACUACAACAGAGGAUUGAGCAUCA"}, "B5": {"name": "109580411_109580531_113_CDS_ENSMUSG00000031916_ENSMUST00000034391|mouse|control|control (ssRNA)", "RNA": "GGGAGUUCUACAGUCCGACGAUCCUCACGCCACUGAGCUUCGGGGAAGCGGUCCCGGAAUAGCGACGCCAGGAGGCCCUCAUCUUCCACCUCCCCCAGCGCGACGGCCGUGGCUGUCGUCGUGGCCGAAGCGGUCGUGGAGGGCAACAGAGGAUUGAGCAUCA"}, "B6": {"name": "chr11:79252212:79252213:+_ENSMUSG00000020716_ENSMUST00000071325|mus_hu|FALSE|FALSE (ssRNA)", "RNA": "GGGAGUUCUACAGUCCGACGAUCACUAGAAGGAAUAUCACAUCCUACCCCGUAAAAAAGGAGAAAGUGACAGGAACUUCUAUCUGCCUGCUUAUUUUUAAGAAGAAAUUUAUUCCUGCAGAUCAAUAUUUCCCGCAACCACUUCAACAGAGGAUUGAGCAUCA"}, "B7": {"name": "chr12:39756943:39756944:-_ENSG00000139116_ENST00000544797|hu_mus|hu_hu_hu_mus_False|8_38 (ssRNA)", "RNA": "GGGAGUUCUACAGUCCGACGAUCGGUUUGGCUGUUACCCCCAAGGGAAUCCUGCAAGAGUCUUGUCAGCUUAGAGUCUCUGUAAGGGACAUGGGUGGCCCUCUUGCUCUUGUCCCCCAAGGCGCUGAUUACAUUGCCAAGAGCCAACAGAGGAUUGAGCAUCA"}, "B8": {"name": "120563640_120563760_5777_3pUTR_ENSMUSG00000090100_ENSMUST00000028740|mouse|control|control (ssRNA)", "RNA": "GGGAGUUCUACAGUCCGACGAUCUAUAUAAUUUACCAUGAAAGACAUGCAAGCAGUACUGCAGUAACUGUUAUACAAUAUAAUACAUAAGGAUCAGUCUCCAGUAUUACAGCUGUAAUAGAUAAACAACAAAUGCGCCUUACCCAACAGAGGAUUGAGCAUCA"}, "B9": {"name": "chr12:85018817:85018818:+_ENSMUSG00000010608_ENSMUST00000048155|mus_mus|motif|central (ssRNA)", "RNA": "GGGAGUUCUACAGUCCGACGAUCUUCUGCUUCUUCAUCUAGUACCAUGGCAACAUCAUCUAAAAUGCUCUGUGGUGAACGGUGUGCCAUAACCUUAGAGCAAACAAAAUCAACUAAUGUAGCUUCUUCUUCACCUAUGUAUUCCAACAGAGGAUUGAGCAUCA"}, "B10": {"name": "chr7:65705844:65705845:+_ENSG00000169902_ENST00000304842|hu_mus|hu_hu_hu_mus_False|68_108 (ssRNA)", "RNA": "GGGAGUUCUACAGUCCGACGAUCAAAAGGAUCUUUAUUACAUAAAUAAGGUGCCGGCUCCCCAUGUUUAACGAUAACCUCCAGAAGGAAGGCUUGCAUGGCAGAAUCUAGCACUUCAUCUGUGACACCCGCCUCAUCCAAGCGCAACAGAGGAUUGAGCAUCA"}, "B11": {"name": "chr1:55209531:55209532:+_ENSMUSG00000025979_ENSMUST00000162364|mus_hu|FALSE|FALSE (ssRNA)", "RNA": "GGGAGUUCUACAGUCCGACGAUCGUUAUCCUUGGACAUCAAAUUGUAUUUCAUCACAAACUUAGUAAACCGAUGACACAAAAAUGUUUCAUUUUCAUAUUCAUCAAAUAUCUGCCGAUGAUGAAAAUAAGCAUGUGAAAAUAUCAACAGAGGAUUGAGCAUCA"}, "B12": {"name": "chr8:117866615:117866616:-_ENSG00000164754_ENST00000297338|hu_mus|FALSE|FALSE (ssRNA)", "RNA": "GGGAGUUCUACAGUCCGACGAUCAAGCUUCUUGGUUGGCGGAGCCAGGUCCAGAGUCGUAACAAUAUCAGAAUAAUCGCUAAGCUGGGCUCUAAUGGUCUUACUAUCCAAUUCUUUGACACUGUCAACAAUCAGCUUCCUCUUCAACAGAGGAUUGAGCAUCA"}, "B13": {"name": "57474714_57474834_186_3pUTR_ENSG00000005194_ENST00000569370|human|control|control (ssRNA)", "RNA": "GGGAGUUCUACAGUCCGACGAUCCACGCGGCCCUCAUUGCCGGUUAACGCUUGAAGCUUAUCCACCAGACCUUUCAGAGCCUCCACUGGGGAUGACUUAUCCCAGACCACUGCCACAAACUGGCCAGCAGAGAUCCCAAAAUCCAACAGAGGAUUGAGCAUCA"}, "B14": {"name": "108213750_108213870_1231_3pUTR_ENSG00000128590_ENST00000249356|human|control|control (ssRNA)", "RNA": "GGGAGUUCUACAGUCCGACGAUCACAGAAAAUUGUUUAGCAUCAAAGAUAAUGAGGAAGAGUCAACCAGUUGGAUUUAGUGAGAAUAGAAUAAGAACUACUGUCCUGAACAGUCAGUGUAUGUAGUAACCAUAUUUCCUCUUCCAACAGAGGAUUGAGCAUCA"}}, "note": "The list shows a part of the results.", "data": [{"target": "T1, UNK ZnF1-3 (human, UniProt Q9C0B0 31-174)", "T1 sequence": "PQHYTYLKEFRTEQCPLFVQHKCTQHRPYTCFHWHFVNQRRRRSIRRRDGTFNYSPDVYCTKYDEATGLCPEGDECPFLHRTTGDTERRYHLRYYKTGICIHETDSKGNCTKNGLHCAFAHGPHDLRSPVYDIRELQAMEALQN", "test": "nsRBNS (natural sequence RNA bind-n-seq); RBNS binding buffer (assumed for nsRBNS): 25 mM Tris pH 7.5, 150 mM KCl, 3 mM MgCl2, 0.01% Triton X-100, 500 ug/ml BSA, 20 U/ml SUPERase-In, 4 C; UNK is unkempt and MSI1 is Musashi-1; names of the RNAs are library labels; protein concentration not given here; high values mean tight binding", "units": {"binding signal": "enrichment R"}, "values": [{"binder": "B1", "binding signal": 2.28}, {"binder": "B2", "binding signal": 1.02}, {"binder": "B3", "binding signal": 1.2}, {"binder": "B4", "binding signal": 1.5}, {"binder": "B5", "binding signal": 0.618}, {"binder": "B6", "binding signal": 1.29}, {"binder": "B7", "binding signal": 0.813}, {"binder": "B8", "binding signal": 1.09}, {"binder": "B9", "binding signal": 1.05}, {"binder": "B10", "binding signal": 0.53}, {"binder": "B11", "binding signal": 0.603}, {"binder": "B12", "binding signal": 0.998}, {"binder": "B13", "binding signal": 1.02}, {"binder": "B14", "binding signal": 1.78}]}]}
